Data: PubChem BioAssay AID686979 (National Center for Advancing Translational Sciences (NCATS), 2013)
The campaign covered roughly 420,000 compounds. About 50,000 (12%) were called active. Inconclusive means that the source gave no clear call. Such entries were picked first, then a sample of the others. Calls come from the whole dose curve; as a rule, active = well fitted inhibition curve with a large enough effect; inconclusive = small, poorly fitted or top-dose-only effect; inactive = flat fitted curve, though single readings scatter. Potencies of inconclusive entries are left out as doubtful fits.

Assay: qHTS for Inhibitors of human tyrosyl-DNA phosphodiesterase 1 (TDP1): qHTS in cells in presence of CPT; note: nearly all actives have a fitted effect of over 55% in size
Details: chicken DT40 Tdp1-/-;hTDP1 cells + 20 nM CPT, ATP luminescence, 48 h; activity change, negative = growth inhibition: at 46.2 µM (top of the series) unless noted
Summary of the method: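 Cell growth measured by CellTiter-Glo luminescence after a minimum 48 h, 37 C compound exposure with 20 nM CPT in Tdp1-knockout DT40 cells stably expressing hTDP1, seeded 400/well; qHTS titration format.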
% is set by controls: 0 for no effect and ±100 for the full control effect; potency is the fitted concentration of half-maximal effect; tags give direction and shape of the fitted curve.

Compound | Potency | activity change, negative = growth inhibition
Cc1cnc(NC(=O)CSc2c(Cl)cccc2Cl)s1 | active: 14.6 µM | –
CSc1ccc(CN2CCC(CO)(CCOc3ccccc3)CC2)cc1 | inconclusive [inhibitor, single point] | –
Cc1cccc(CS(=O)(=O)c2ncc(Cl)c(C(=O)NCc3ccc4c(c3)OCO4)n2)c1 | active: 2.91 µM | –
Cc1sc2ncnc(N3CCC(C(=O)Nc4nc(-c5cccs5)cs4)CC3)c2c1C | active: 10.3 µM | –
O=C(c1ccc(Cn2c(=S)[nH]c3ccc(N4CCOCC4)cc3c2=O)cc1)N1CCC(N2CCCCC2)CC1 | inconclusive [inhibitor, single point] | –
CCN(CC)CCN(C(=O)c1ccc(C(=O)OC)cc1)c1nc2ccc(Cl)cc2s1 | inconclusive [inhibitor, single point] | –
CC1CCCN(S(=O)(=O)c2ccc(NC(=O)CNC3CCCC3)cc2)C1 (stereo not given) | inconclusive [inhibitor, single point] | –
CCOC(=O)C1(C)C=C(Nc2ccc(C)cc2)C(=O)N1c1ccccc1 (stereo not given) | inconclusive [inhibitor, full curve, poor fit] | –
CNC(=S)Nc1ccc(N2CCCC2)c(S(=O)(=O)Nc2ccc(OC)cc2)c1 | inconclusive [inhibitor, partial curve, poor fit] | –
CC1(C)CC(=O)C2=C(C1)N(Cc1ccco1)C(=O)C2(NC(=O)C1CCCCC1)C(F)(F)F (stereo not given) | inactive | –
COCCNc1cc(N2CCN(C3CCCCC3)CC2)c2noc3c2c1C(=O)c1ccccc1-3 | active: 18.4 µM | –
CCOc1ccccc1NC(=O)c1ccc2c(c1)CCCN2S(C)(=O)=O | inactive | –
CCOc1ccc(NC(=O)CN2C(=O)COc3ccccc32)cc1 | inactive | –
O=C(CN1CCCCC1)Nc1cccc(Oc2ccccc2)c1 | inconclusive [inhibitor, partial curve, poor fit] | –
Cc1cccn2c(=O)c(/C=C(\C#N)C(=O)NC3CCS(=O)(=O)C3)c(Oc3ccc(F)cc3)nc12 (stereo not given) | inconclusive [inhibitor, single point] | –
O=C(Nc1cccc(F)c1)N1CC2(CCN(C(=O)c3ccco3)CC2)C1 | inactive | –
CCCCCCN1C[C@H](O)[C@@H](n2cc(-c3ccc(F)cc3)nn2)C[C@@H]1c1ccccc1 | active: 20.6 µM | –
S=C1SCN(CCN2CCOCC2)CN1Cc1ccccc1 | active: 5.01 µM | –
S=C(NCc1ccncc1)Nc1cccc(Cl)c1 | inactive | –
Cc1cc(Br)ccc1NC(=O)CNC(=O)CN1C(=O)NC2(CCCCCC2)C1=O | inactive | –
COc1cccc(C(=O)N2CCC(c3nc4ccccc4s3)CC2)c1 | inconclusive [inhibitor, single point] | –
COc1ccc(NC(=O)C2CC(c3ccc(Cl)cc3)=NO2)cc1 (stereo not given) | inactive | –
CN1CCN(C(=O)C2=C[C@@H](C3CCCCC3)C[C@@H](OCc3ccc(CO)cc3)O2)CC1 | inconclusive [inhibitor, single point] | –
O=C(CSc1ccccc1F)NCC(c1ccco1)N1CCCCC1 (stereo not given) | inconclusive [inhibitor, single point] | –

Compound | Potency | activity change, negative = growth inhibition
O=[N+]([O-])c1cccc(/C=C/c2nc(C=Nc3ccccc3)c(O)o2)c1 | inconclusive [inhibitor, partial curve, poor fit] | –
O=C(c1c[nH]c(C(=O)C(Cl)(Cl)Cl)c1)c1ccccc1F | inconclusive [inhibitor, single point] | –
Cc1ccc(N(CC(=O)Nc2cccc(N(C)S(C)(=O)=O)c2)S(C)(=O)=O)cc1 | inconclusive [inhibitor, partial curve] | –
CC(C)CCn1nc(C(=O)Nc2nc3c(s2)CCCC3)c2ccccc2c1=O | active: 25.9 µM | –
O=C(Nc1ccc2nn(-c3ccc(F)cc3)nc2c1)c1cccc2c(Cl)cccc12 | active: 10.3 µM | –
CC1CCN(C(=O)COC(=O)C2CCN(S(=O)(=O)c3c(Cl)cccc3Cl)CC2)CC1 | inconclusive [inhibitor, full curve, poor fit] | –
CCc1ccc(OC)c(S(=O)(=O)NCc2cccs2)c1 | inactive | –
O=C(C1COc2ccccc2O1)N(Cc1cccnc1)c1nc2c(F)cc(F)cc2s1 (stereo not given) | inactive | –
CCN=C(Nc1cccc(F)c1)SC1CC(=O)N(c2ccc(OC)cc2)C1=O (stereo not given) | inconclusive [inhibitor, single point] | –
COc1ccc(CC(=O)N/N=C/c2cc([N+](=O)[O-])cc(Br)c2O)cc1 | inconclusive [inhibitor, single point] | –
O=S(=O)(c1cccs1)N1CN(Cc2ccco2)c2nc3ccccc3nc21 | inconclusive [inhibitor, single point] | –
Cc1ccc(Cl)cc1N1CCN(C(=O)c2c(C)oc3ncnc(N4CCOCC4)c23)CC1 | inconclusive [inhibitor, single point] | –
COc1ccc(/C=N/NC(=O)C2C3CCCCC32C)cc1OC (stereo not given) | inactive | –
Cc1ccc(C)c(Cn2c(=O)n(CCCC(=O)NCc3ccco3)c(=O)c3sccc32)c1 | active: 23.1 µM | –
Cc1ccc(S(=O)(=O)N2CCC(=O)N(C(COCc3ccc(C(F)(F)F)cc3)C(C)C)CC2)cc1 (stereo not given) | active: 16.4 µM | –
C=CCc1c(C)nc(C)nc1N/N=C/c1ccc([N+](=O)[O-])cc1 | inconclusive [inhibitor, single point] | –
Cc1cccc(C)c1OCc1cc(C(=O)N2CCN(C3CCCC3)CC2)no1 | inconclusive [inhibitor, single point] | –
CCn1c(=O)n(CC)c2cc(N3CCCC3)c(NC(=O)c3c(F)cccc3F)cc21 | inconclusive [inhibitor, single point] | –
CC(C)(C)c1ccc(Cn2nnc3c(=O)[nH]c(C4CCCN(C(=O)c5ccco5)C4)nc32)cc1 (stereo not given) | inconclusive [inhibitor, single point] | –
O=C(COc1ncnc2cc([N+](=O)[O-])ccc12)NC1CCCCC1 | inactive | –
O=C(Nc1nccs1)c1ccc(COc2ccccc2Br)o1 | inconclusive [inhibitor, single point] | –
COc1cccc(CN2CCN(CCCc3ccccc3)C(CCO)C2)c1O (stereo not given) | inactive | –
O=C(c1ccc2c(c1)OCCO2)C1CCN(S(=O)(=O)c2ccc(F)cc2)CC1 | inactive | –
COc1cccc(C2CC(=O)Nc3cc4c(cc32)CCC4)c1 (stereo not given) | active: 4.11 µM | –

Compound | Potency | activity change, negative = growth inhibition
O=C(CSc1n[nH]c(-c2ccccc2)n1)c1ccc(O)c(O)c1 | inconclusive [inhibitor, single point] | –
O=C(N/N=C/c1cccc(O)c1)c1ccc(NC(=O)c2cccc([N+](=O)[O-])c2)cc1 | inconclusive [inhibitor, single point] | –
CCOc1ccccc1NC(=O)c1c(NCc2ccc(OC)c(OC)c2OC)sc2c1CCC(C)C2 (stereo not given) | inconclusive [inhibitor, single point] | –
O=c1cccc2n1Cc1cc3ccccc3nc1-2 | inconclusive [inhibitor, partial curve] | –
CCc1nnc(SCc2nc(-c3ccccc3F)oc2C)c2cc3sccc3n12 | inactive | –
CCOc1ccccc1C1C(C(=O)Nc2ccc(OC)cc2)=C(C)Nc2nc(CCCO)nn21 (stereo not given) | – | inconclusive: 2.98% [inhibitor]
Cc1cc(C)cc(OCC(=O)Nc2ccc(-c3nc4ncccc4o3)cc2C)c1 | inactive | –
CC1CN(c2ncnc3c2c(-c2ccccc2)cn3-c2ccc(F)cc2)CC(C)O1 (stereo not given) | active: 16.4 µM | –
COc1ccc(C2=NN(C(=O)CSc3nnc(-c4ccccc4F)o3)C(c3ccco3)C2)cc1 (stereo not given) | inconclusive [inhibitor, single point] | –
CC(=O)Nc1nnc(SCC(=O)Nc2nc(C)cs2)s1 | inactive | –
COC(=O)c1cccc(Nc2c(-c3cc(Br)ccc3O)nc3nc[nH]n23)c1 | inconclusive [inhibitor, single point] | –
CN(C)S(=O)(=O)N1CCCC(C(=O)c2ccc(-c3ccccc3)cc2)C1 (stereo not given) | inconclusive [inhibitor, single point] | –
CC(C)c1ccc(C2(O)C(=O)Nc3cc(Br)ccc32)c(O)c1 (stereo not given) | inconclusive [inhibitor, single point] | –
Cc1cccc(-n2c(SCC(=O)N(C)C3CCS(=O)(=O)C3)nc3ccccc3c2=O)c1C (stereo not given) | inconclusive [inhibitor, single point] | –
Cc1ccc(OCC(=O)Nc2cccc(C(=O)OCc3cc(=O)n4cc(C)sc4n3)c2)cc1 | inactive | –
COc1ccc(-c2cc(C(=O)N(C)Cc3ccccc3)c3ccccc3n2)cc1 | inconclusive [inhibitor, single point] | –
O=C(COc1ccc(Br)cc1Cl)NNC(=O)c1ccccc1 | inactive | –
CCc1nc2ccc(C(=O)NCCOc3ccc(OC)cc3)cn2c1N(C)C(=O)C1CCCCC1 | inconclusive [inhibitor, single point] | –
O=C(NCC(=O)N(c1cccnc1)C(C(=O)NC1CCCC1)c1cccs1)c1ccco1 (stereo not given) | inactive | –
COc1ccc2c(CC(=O)N(C)CC3COc4ccccc4O3)coc2c1 (stereo not given) | inconclusive [inhibitor, single point] | –
CCC1(C)N=C(c2ccc3c(c2)OCO3)CC(c2ccccc2O)N1 (stereo not given) | active: 13 µM | –
CC(C)(C)C1CCN2CCCC(c3ccc([N+](=O)[O-])cc3)(C1)C21OCCO1 (stereo not given) | active: 20.6 µM | –
